According to PubChem BioAssay AID1259400 (National Center for Advancing Translational Sciences (NCATS), 2018):
The whole screen tested about 350,000 compounds, of which about 2,100 (0.6%) were called active. This list was built around the results that the source calls inconclusive (neither active nor inactive); the mix of calls is not that of the screen.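 Rule for the calls: active = activity change of -60% or lower, but not beyond a set lower limit; inconclusive = change between -60% and -40%, or beyond the set limit; inactive = change above -40%.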

What follows are compounds tested against Relaxin receptor 1 (Homo sapiens) (UniProt Q9HBX9) (assay: qHTS Assay for Antagonists of the Relaxin Receptor RXFP1). Conditions: HEK293-RXFP1, relaxin-stimulated cAMP HTRF, 30 min; at 57.5 µM; active compounds read low.
Source text: The relaxin hormone is involved in the variety of biological functions in normal tissues and diseases. The role of relaxin is well-established in female reproduction and parturition, mammary gland and endometrial development, maintenance of myometrial quiescence during pregnancy. Relaxin signaling through its G protein-coupled receptor (GPCR) RXFP1 results in ECM remodeling through regulation of collagen deposition, cell invasiveness, proliferation and overall tissue homeostasis. […] Recombinant human relaxin (rhRlx) is currently being tested in clinical trials as a protective agent in congestive heart failure, in treating severe preeclampsia, and as an anti-fibrotic agent in various organs. […] Upon relaxin binding RXFP1 activation leads to the activation of adenylate cyclase (AC) via G?s. cAMP will activate PKA, which phosphorylates many signaling proteins. […] RXFP1 activation by relaxin in presence of various concentrations of tested compounds was assayed by changes in cAMP levels as detected with a time-resolved fluorescence energy transfer (TR-FRET) cAMP detection kit.
For the primary screening, we used HTRF(R) (Homogenous Time-Resolved Fluorescence) cAMP HiRange assay (Cisbio Bioassays, 62AM6PEJ). […] The EC50 values were determined from concentration-response data modeled with the standard Hill equation. […]
% is set by controls: 0 for no effect and ±100 for the full control effect.

Chain of UniProt Q9HBX9 (Q9HBX9 whole entry, looked up): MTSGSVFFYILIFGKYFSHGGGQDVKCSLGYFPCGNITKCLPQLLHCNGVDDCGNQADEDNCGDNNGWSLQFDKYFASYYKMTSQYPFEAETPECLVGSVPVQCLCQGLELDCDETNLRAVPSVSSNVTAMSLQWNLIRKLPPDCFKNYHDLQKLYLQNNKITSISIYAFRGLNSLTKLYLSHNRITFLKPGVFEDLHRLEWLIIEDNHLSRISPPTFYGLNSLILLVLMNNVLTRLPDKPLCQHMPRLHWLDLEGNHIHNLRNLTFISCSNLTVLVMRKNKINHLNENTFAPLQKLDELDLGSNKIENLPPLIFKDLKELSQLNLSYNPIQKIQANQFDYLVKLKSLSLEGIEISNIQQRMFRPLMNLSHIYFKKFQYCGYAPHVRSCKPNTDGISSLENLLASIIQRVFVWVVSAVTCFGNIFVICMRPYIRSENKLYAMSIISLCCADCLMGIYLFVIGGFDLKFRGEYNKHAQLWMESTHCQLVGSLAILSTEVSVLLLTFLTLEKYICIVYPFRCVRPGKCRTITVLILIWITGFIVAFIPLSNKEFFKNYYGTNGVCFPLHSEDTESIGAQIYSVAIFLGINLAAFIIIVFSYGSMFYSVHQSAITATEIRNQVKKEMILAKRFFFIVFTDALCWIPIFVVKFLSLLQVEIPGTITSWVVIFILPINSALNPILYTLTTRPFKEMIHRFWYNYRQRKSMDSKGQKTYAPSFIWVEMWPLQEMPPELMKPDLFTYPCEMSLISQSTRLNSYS

Compound	activity change, negative = inhibition
O=C(O)COc1ccccc1/C=N/NC(=O)CSc1nnc(SCc2cccc3ccccc23)s1	inconclusive: -45.4%
O=C(Nc1ccc(-c2nc3ccccc3[nH]2)cc1)c1ccccc1NS(=O)(=O)c1ccc(F)cc1	inconclusive: -46.3%
